In PubChem BioAssay AID624202 (National Center for Advancing Translational Sciences (NCATS), 2012):
Screen size: about 380,000 compounds; about 4,000 (1.1%) were called active. The inconclusive results got no clear call from the source; some entries with a clear call stand among them for comparison. Calls come from the whole dose curve; as a rule, active = well fitted activation curve with a large enough effect; inconclusive = small, poorly fitted or top-dose-only effect; inactive = no such curve, though single readings can be large or run the other way. A potency beside an inconclusive call is a rough fit, not a confirmed value.

experiment: qHTS Assay to Identify Small Molecule Activators of BRCA1 Expression; conditions: MCF7-BRCA1-FFLuc reporter, luminescence, 48 h; activation: at 46.1 µM (top of the series), scaled: vehicle 0%, 10 µM genistein 100% unless noted; note: nearly all actives have a fitted effect of over 80% in size
Procedure, shortened: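 Activators of BRCA1 expression were detected as increased firefly luciferase luminescence in engineered MCF7 cells after 48 h compound incubation. Signals were scaled to genistein 10 microM as full activation.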
Potency is the fitted concentration of half-maximal effect; tags give direction and shape of the fitted curve.

| SMILES | Potency | activation |
| --- | --- | --- |
| N#C/C(=C/c1ccc(N2CCOCC2)o1)c1nc2ccccc2[nH]1 | inconclusive: 0.501 µM [activator, full curve, poor fit] |  |
| COC(=O)c1c(NC(=O)Cc2cccs2)sc(C(=O)NC2CCCCC2)c1C | active: 3.16 µM |  |
| CC(=O)Nc1ccc2nc(NC(=O)c3cccnc3)sc2c1 | inconclusive: 20 µM [activator, partial curve, poor fit] |  |
| Cc1ccc(CCNc2ncnc(Cl)c2N)cc1 | inconclusive: 7.08 µM [activator, partial curve, poor fit] |  |
| Cc1cccc(C)c1NC(=O)CNC(=O)Cc1ccc(Br)cc1 | inactive |  |
| Cc1ccc(-c2cc(C(=O)N3CCN(c4ccccc4O)CC3)c3ccccc3n2)o1 | active: 4.47 µM |  |
| CCCNC(=O)C1(C)CCCN(C(=O)c2ccccc2OC(F)(F)F)C1 (configuration not stated) | inactive |  |
| Cc1ccc(OCc2cc(C(=O)N3CCCC3)no2)cn1 | inconclusive: 2.24 µM [activator, partial curve, poor fit] |  |
| COc1cc(C(=O)NCCNc2nc3c(C)c(C)ccc3cc2C#N)cc(OC)c1OC | inactive |  |
| Cc1cn(CCC(=O)Nc2ccc(N3CCOCC3)cc2)c2ccccc12 | active: 10 µM |  |
| C/C(=C\C(=O)Nc1cc(C)on1)c1ccccc1 | inconclusive: 15.8 µM [activator, partial curve, poor fit] |  |
| Cc1ccc(O)c(-n2nc3ccccc3n2)c1 | inconclusive: 35.5 µM [activator, single point] |  |
| Cc1cccc(N2CCN(Cc3nc(-c4ccc(F)cc4F)oc3C)CC2)n1 | inactive |  |
| CCOc1ccc(/C(O)=C2\C(=O)C(=O)N(c3ccc(OC)cc3)C2c2ccccc2[N+](=O)[O-])cc1 (configuration not stated) | inconclusive: 0.631 µM [activator, full curve, poor fit] |  |
| CCn1c(=O)c2cc(C(=O)N(CC(C)C)CC(C)C)sc2c2ccccc21 | inactive |  |
| Cc1[nH]nc(SCC(=O)N2CCCCCC2)c1[N+](=O)[O-] | active: 7.94 µM |  |
| O=[N+]([O-])c1ccccc1/C=N/OCc1ccccc1 | inconclusive: 10 µM [activator, partial curve, poor fit] |  |
| CC1CCN(CC(O)COC2CC(C)CCC2C(C)C)CC1 (configuration not stated) | inactive |  |
| CC(C)C(=O)Nc1nc(-c2ccccc2)ns1 | inconclusive: 2.24 µM [activator, full curve, poor fit] |  |
| Cc1nnc(CN(C)C(=O)c2cc(COc3ccc(F)cc3Cl)on2)o1 | inconclusive: 11.2 µM [activator, partial curve, poor fit] |  |
| Nc1ccc(C(=O)OCc2nc3c(ccc4ccccc43)[nH]2)cc1 | active: 7.08 µM |  |
| COC(=O)c1c(N)sc(C(=O)NCCc2ccccc2)c1C |  | inconclusive: -74.9% [activator] |
| CCC(CC)C(=O)Nc1ccc(-c2cn3cccnc3n2)cc1 | inconclusive: 31.6 µM [activator, single point] |  |
| Cn1c(SCc2ccc(F)cc2)nnc1-c1cccs1 | active: 4.47 µM |  |
| O=C(Nc1ccc(F)c(Cl)c1)C1Cc2c(-c3ccco3)ccnc2O1 (configuration not stated) | inactive |  |
| CC12CCC(C/C1=N\N=C1\NC(=O)/C(=C\c3ccc(Cl)cc3)S1)C2(C)C (configuration not stated) | inactive |  |

| SMILES | Potency | activation |
| --- | --- | --- |
| O=Cc1ccc(OCc2ccc3ccccc3c2)cc1 | active: 4.47 µM |  |
| Cc1ccnc(NC(=O)c2ccc3c(c2)S(=O)(=O)c2ccccc2C3=O)c1 | inconclusive: 35.5 µM [activator, single point] |  |
| COc1ccc(-c2cc3ccc(OCC(C)=O)cc3oc2=O)cc1OC | active: 10 µM |  |
| Cc1cc(NC(=O)COC(=O)[C@H](Cc2c[nH]c3ccccc23)NC(=O)c2ccc(F)cc2)no1 | inactive |  |
| COc1cccc(/C=N/Nc2ncccc2[N+](=O)[O-])c1OC |  | inconclusive: -88.7% [activator] |
| CCOCc1nnc(NC(=O)c2ccc(OC)cc2)s1 | active: 12.6 µM |  |
| Cc1cccc(/C(N)=N/OC(=O)c2ccc(Cl)cc2Cl)c1 |  | inconclusive: -72.2% [activator] |
| Cc1nc(CSc2ccc(Cl)cc2)cc(NCc2ccccc2)n1 | inconclusive: 15.8 µM [activator, single point] |  |
| COc1ccccc1NC(=O)c1ccc2c(c1)N(CC(=O)NC(C)(C)C)C(=O)C(C)(C)O2 | inactive |  |
| Cc1cc(Cl)ccc1OCC(=O)N1CCCCC1 | active: 11.2 µM |  |
| COc1ccc(S(=O)(=O)N2CCN(C/C=C/c3ccccc3)CC2)cc1F | inactive |  |
| COc1ccccc1N1CCN(c2ncnc3sc(C(=O)NCC4CCCO4)c(C)c23)CC1 (configuration not stated) | inactive |  |
| CC1CCN(C(=O)CCNC(=O)c2ccccc2)CC1 | inconclusive: 22.4 µM [activator, partial curve, poor fit] |  |
| CSc1ccc(CCNC(=O)c2cnn(-c3ccccc3)c2-n2cccc2)cc1 | inactive |  |
| O=C(c1ccc(F)cc1)c1ccc(N2CCCC2)cc1 | active: 3.16 µM |  |
| CC1CCN(C(=O)CSCc2ccc(Cl)cc2)CC1 | active: 2.82 µM |  |
| c1ccc(-n2ncc3c2ncn2nc(-c4ccco4)nc32)cc1 | inconclusive: 3.16 µM [activator, partial curve, poor fit] |  |
| CC1CC(C)(C)NC(=O)O1 (configuration not stated) | inactive |  |
| CCCC(=O)N1CCCC(c2cc(C(=O)Nc3ccc4c(c3)OCO4)no2)C1 (configuration not stated) | inconclusive: 20 µM [activator, partial curve, poor fit] |  |
| O=[N+]([O-])c1ccc2nc(N3CCCC3)sc2c1 | active: 8.91 µM |  |
| S=C(Nc1ccc(Br)cc1)NC1CCCCC1 | active: 10 µM |  |
| Cc1n[nH]c(=O)n1-c1ccc(OCc2ccccc2)cc1 | active: 5.62 µM |  |
| FC(F)Oc1ccc(NC(=S)NC2CCSc3ccccc32)cc1 (configuration not stated) | inactive |  |
| C(/C=C/c1ccccn1)=C\c1ccccc1 | inconclusive: 0.631 µM [activator, full curve, poor fit] |  |
| O=C(Nc1ccc(F)cc1)NC1CCCCCCC1 | inconclusive: 14.1 µM [activator, partial curve, poor fit] |  |
| CC1CCCCN1C(=O)CSc1nnc(-c2ccccc2F)o1 (configuration not stated) | active: 3.16 µM |  |
